In PubChem BioAssay AID463173 (ICCB-Longwood Screening Facility, Harvard Medical School, 2010) one finds survival data, which are given here for 25 molecules.

Screen size: about 52,000 compounds; about 4,300 (8.3%) were called active. No stated cut-off is given here; in the data, active means survival mostly below about 52% (no sharp cut-off); inactive means mostly above about 56%. The list shows a part of the results.

The test system of this test is DeltatarO mutant. Briefly: growth inhibition of S. aureus wild type versus tarO mutant, primary screen, teichoic acid synthesis inhibitors, RN4220, OD600 (AID 463173). The note with it: OD600, 18 h, hits give low values, screened at 18.75 µg/mL (by protocol).
With `Cc1c(C(=O)N(C)C)sc2c1c(=O)n(-c1ccc(Cl)c(Cl)c1)c(=O)n2CC(=O)N1CCCCC1C` (stereo not given), the survival is inactive: 57%. Then `CCCc1cc(=O)[nH]c(Nc2cc(C)cc(C)c2)n1`, with inactive: 108%; and `COc1ccc(-c2noc(-c3ccc(N4CCN(c5ccccc5OC)CC4)c([N+](=O)[O-])c3)n2)cc1`, with inactive: 51%. Then `CCOc1ccc(NC(=O)CSc2nnc(CNC(=O)C34CC5CC(CC(C5)C3)C4)n2CC)cc1`, with inactive: 92%. Then `COc1ccc(-n2nc3cc(C)c(NC(=O)Cc4ccc(Cl)cc4)cc3n2)cc1`, with inactive: 56%; and `COc1ccc(OC)c(CNC(=O)c2ccc3c(c2)c(C)c(C)n3C)c1`, with inactive: 78%.

Take `CCCCN(CC)C(=O)c1nn(-c2ccc(OC)cc2)c(=O)c2c1c1ccccc1n2C`: the survival is inactive: 82%. Regarding `Cc1ccc(C)c(N2CCN(C(=O)c3cc4c(=O)oc5ccccc5c4s3)CC2)c1`, the survival is inactive: 77%. The value for `O=C(Cn1c(=O)n(-c2ccccc2)c(=O)c2ccc(C(=O)NCc3ccc4c(c3)OCO4)cc21)Nc1ccc(Br)cc1` was inactive: 79%; that for `Cc1ccc(S(=O)(=O)N2CCN(C(=O)c3c(C)nn(-c4ccccc4)c3Cl)CC2)cc1` was inactive: 63%. The value for `CCOc1cc(CNC(=O)c2ccc3nc(C(C)C)oc3c2)cc(OCC)c1OCC` was active: 47%.

As to `CCS(=O)(=O)c1oc(-c2ccc(F)cc2)nc1S(=O)(=O)c1ccccc1`, the survival is active: -5%. With `O=C(CSc1nc2ncccc2o1)Nc1cccc(C(F)(F)F)c1`, the survival was active: -1%. As for `CN(CCO)Cc1ccc2c(c1)OCO2`, the survival was inactive: 90%. For `COc1ccc(N2CCN(S(=O)(=O)CCNC(=O)Cc3ccc(OC)c(OC)c3)CC2)cc1`, the survival is inactive: 88%. Consider `Cc1nc(SCC(=O)Nc2nsc(-c3ccc(C(C)(C)C)cc3)n2)c2c3c(sc2n1)CCCC3`, for which the survival is inactive: 78%.

With `COc1ccc(N2CC(NC(=O)C3CCCCC3)CC2=O)cc1OC` (stereo not given), the survival is inactive: 78%. Then `O=C(c1cnc2c(c1)COc1ccc(Cl)cc1-2)c1ccccc1O`, with inactive: 105%; and `O=C(CCn1nnc2ccccc21)N1CCC(O)(c2cccc(F)c2)CC1`, with inactive: 81%; and `O=C(O)c1ccc(N=NSCCO)cc1`, with inactive: 79%. The value for `CCOc1ccc(NC(=O)CCCOc2cc(=O)n(C)c3ccccc23)cc1` was inactive: 80%. For the molecule `Clc1ccccc1CSc1nnc(C2CCNCC2)o1`, the survival was inactive: 89%. Regarding `Cc1ccc2nc(-c3ccc(C)o3)c(Nc3ccc4c(c3)OCCO4)n2c1`, the survival is inactive: 72%. On to `COc1ccc(NC(=O)c2oc3ccccc3c2NC(=O)Cc2coc3ccc(C)cc23)cc1`, for which the survival is inactive: 70%. Turning to `Cc1ccccc1CSc1nc(-c2cccc(F)c2)nc2c1Cc1c(CO)cnc(C)c1O2`, the survival is inactive: 75%.
